Experimental data as given in PubChem BioAssay AID1508642 (National Center for Advancing Translational Sciences (NCATS), 2021).
In all, about 43,000 compounds went through this assay and about 200 (0.47%) were called active. Inconclusive results (about 12%) are left out. Calls come from the whole dose curve; as a rule, active = well fitted cell-killing curve with a large enough effect; inconclusive = small, poorly fitted or top-dose-only effect, or effect the other way; inactive = flat fitted curve, though single readings scatter. The list shows a part of the results.

Assay: Cell viability qHTS assay in S16 Pmp22-F2sN cells; note: nearly all actives have a fitted effect of over 65% in size
Details: S16 Pmp22-F2sN Schwann cells viability, CellTiter-Glo, 24 h; series mostly up to 57.5 µM; activity change, negative = cytotoxicity: at the top concentration
In short: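 S16 Pmp22-F2sN Schwann cells (500-1,000/well) in phenol-red-free DMEM with 10% FBS received 23 nL compound by pin tool for 24 h at 37 °C. Viability was then read as CellTiter-Glo luminescence after 15 min at room temperature.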
% is set by controls: 0 for no effect and ±100 for the full control effect; potency is the fitted concentration of half-maximal effect.

**Q.** For CCOC(=O)c1c(-c2ccc(C)cc2)csc1NC(=O)c1nc(SC(C)C)ncc1Cl, which “activity change, negative = cytotoxicity” value is on record?
**A.** The value was inactive: 0.0337%.

**Q.** With CCc1ccccc1NC(=O)C1CCCN(C(=O)c2cnn(-c3ccccc3)c2-n2cccc2)C1 (configuration not stated) as the compound, how does the “activity change, negative = cytotoxicity” value read?
**A.** Its value is inactive: -13.2%.

**Q.** For Cc1ccc(NC(=O)CSc2nc3ccccc3nc2N2CCOCC2)cc1, which “activity change, negative = cytotoxicity” value is on record?
**A.** The value was inactive: -25.8%.

**Q.** For COc1cc2nc(NCc3ccc(C)cc3)n3nc(-c4ccccc4)nc3c2cc1OC, which “activity change, negative = cytotoxicity” value is on record?
**A.** Its value is inactive: -8.48%.

**Q.** With CCOc1ccccc1NC(=O)c1c(NC(=O)c2cccc(C)c2)sc2c1CCC2 as the compound, how does the “activity change, negative = cytotoxicity” value read?
**A.** The value was inactive: 27.2%.

**Q.** With CCOc1ccc(N2CC(NC(=O)c3ccc(S(=O)(=O)N4CCCCC4)cc3)CC2=O)cc1 (configuration not stated) as the compound, how does the “activity change, negative = cytotoxicity” value read?
**A.** Its value is inactive: 10.2%.

**Q.** With CCc1cc2c(cc3c(=O)n(CC(=O)NC4CCC(C)CC4)ncn32)s1 (configuration not stated) as the compound, how does the “activity change, negative = cytotoxicity” value read?
**A.** Its value is inactive: 1.33%.

**Q.** Which “activity change, negative = cytotoxicity” value does the source give for CCN1C(C(=O)c2ccccc2)=C(OC(=O)c2ccccc2OC)c2ccccc2S1(=O)=O here?
**A.** Its value is inactive: -30.3%.

**Q.** For COc1ccc(CCNC(=O)CS(=O)Cc2nc(-c3ccccc3F)oc2C)cc1OC (configuration not stated), which “activity change, negative = cytotoxicity” value is on record?
**A.** Its value is inactive: 2.87%.

**Q.** Which “activity change, negative = cytotoxicity” value does the source give for COc1cc(NC(=O)CSc2ncccc2C(=O)OC(C)C)cc(OC)c1 here?
**A.** Its value is inactive: 4.79%.

**Q.** With Cc1cc(C(=O)NCc2ccccc2Cl)c2c(C)nn(-c3ccccc3)c2n1 as the compound, how does the “activity change, negative = cytotoxicity” value read?
**A.** The value was inactive: 4.97%.

**Q.** Which “activity change, negative = cytotoxicity” value does the source give for CC(C)CCNC(=O)CN1C(=O)CSc2ccc(S(=O)(=O)N3CCCCC3)cc21 here?
**A.** Its value is inactive: 12.5%.

**Q.** For Cc1c(C(=O)N2CCN(c3ccccc3)CC2)sc2nc3n(c(=O)c12)CCC3, which “activity change, negative = cytotoxicity” value is on record?
**A.** The value was inactive: -3.6%.

**Q.** Which “activity change, negative = cytotoxicity” value does the source give for CCc1ccc(S(=O)(=O)c2nnn3c2nc(NC(C)C)c2sccc23)cc1 here?
**A.** The value was inactive: -15%.

**Q.** For COc1ccc(CCNC(=O)c2ccc3c(c2)ncn3-c2ccc(C)cc2C)cc1OC, which “activity change, negative = cytotoxicity” value is on record?
**A.** Its value is inactive: -8.74%.

**Q.** For CCN(CC)CCNC(=O)c1ccc2c(=O)n3nc(Nc4ccccc4OC)sc3nc2c1, which “activity change, negative = cytotoxicity” value is on record?
**A.** The value was inactive: 10.8%.

**Q.** For O=S1(=O)c2ccccc2N(Cc2cccc(Cl)c2)c2ccccc21, which “activity change, negative = cytotoxicity” value is on record?
**A.** Its value is inactive: 9.01%.

**Q.** For COc1cccc(CNC(=O)C2CCN(c3nnc(-n4c(C)ccc4C)s3)CC2)c1OC, which “activity change, negative = cytotoxicity” value is on record?
**A.** The value was inactive: -3.43%.

**Q.** For CC(=O)c1cc2c(cc1N/C(=N/S(=O)(=O)c1ccc(C)cc1)c1ccc(F)cc1)OCO2, which “activity change, negative = cytotoxicity” value is on record?
**A.** The value was inactive: -1.61%.

**Q.** For O=C(NC1CCCC1)c1ccc(CSc2nc3cccnc3n2Cc2ccc(F)cc2)cc1, which “activity change, negative = cytotoxicity” value is on record?
**A.** Its value is inactive: 2.21%.

**Q.** Which “activity change, negative = cytotoxicity” value does the source give for CCOC(=O)c1ccc2ncc3c(-c4ccccc4)nn(-c4ccc(F)c(Cl)c4)c3c2c1 here?
**A.** Its value is inactive: 5.85%.

**Q.** With CCOc1ccc(NC(=O)CSc2ncc3c(n2)-c2ccccc2N(Cc2ccccc2C)S3(=O)=O)cc1 as the compound, how does the “activity change, negative = cytotoxicity” value read?
**A.** The value was inactive: -23.1%.

**Q.** For CC(=O)c1ccc(N2CCN(S(=O)(=O)c3ccc4c(c3)C(C)(C)C(=O)N4)CC2)cc1, which “activity change, negative = cytotoxicity” value is on record?
**A.** The value was inactive: -1.38%.

**Q.** With Oc1ccccc1-c1nc(/C=C/c2ccc(F)cc2)nn1-c1ccccc1 as the compound, how does the “activity change, negative = cytotoxicity” value read?
**A.** Its value is inactive: 19.2%.

**Q.** Which Potency does the source give for COc1cccc(/C=C/C(=O)Nc2ccc3nc(N4CCN(C)CC4)cc(C)c3c2)c1OC here?
**A.** The Potency was active: 31.6 µM.

**Q.** With CC(Oc1ccccc1)C(=O)Nc1nnc2n1CCS2 (configuration not stated) as the compound, how does the “activity change, negative = cytotoxicity” value read?
**A.** Its value is inactive: -6.55%.

**Q.** For CC(=O)N1CCc2nc3sc(C(=O)Nc4ccc(Cl)cc4F)c(N)c3c(C(F)(F)F)c2C1, which “activity change, negative = cytotoxicity” value is on record?
**A.** The value was inactive: 4.8%.

**Q.** For CCOc1ccccc1NC(=O)Cn1c(=O)ccc2cc(S(=O)(=O)N3CCCC3)ccc21, which “activity change, negative = cytotoxicity” value is on record?
**A.** The value was inactive: -0.199%.

**Q.** With COc1ccc(C(=O)Nc2ccc(-c3nnc4n3CCCCC4)cc2)cc1OC as the compound, how does the “activity change, negative = cytotoxicity” value read?
**A.** The value was inactive: -1.68%.

**Q.** With COC(=O)c1cccc(-n2c(CCC(=O)O)ccc2-c2cccs2)c1 as the compound, how does the “activity change, negative = cytotoxicity” value read?
**A.** Its value is inactive: -2.12%.

**Q.** Which “activity change, negative = cytotoxicity” value does the source give for O=C(c1cc2ccc3cccnc3c2[nH]1)N1CCN(c2ccccc2)CC1 here?
**A.** Its value is inactive: 0.665%.

**Q.** With COc1cc(-c2nc3nc(C)cc(C)n3c2Nc2ccc(Cl)cc2)ccc1O as the compound, how does the “activity change, negative = cytotoxicity” value read?
**A.** The value was inactive: -2.14%.

**Q.** With Cc1nn(C(=O)c2cccc(Cl)c2)c(C)c1S(=O)(=O)N1CCOCC1 as the compound, how does the “activity change, negative = cytotoxicity” value read?
**A.** Its value is inactive: -3.37%.

**Q.** With CCn1c(=O)cc(SCC(=O)NCc2ccc(OC)cc2OC)c2ccccc21 as the compound, how does the “activity change, negative = cytotoxicity” value read?
**A.** The value was inactive: -5.42%.

**Q.** With COc1ccc(CCNC(=O)c2ccc3c(c2)N(Cc2ccc(F)cc2)C(=O)CS3)cc1OC as the compound, how does the “activity change, negative = cytotoxicity” value read?
**A.** Its value is inactive: -2.47%.

**Q.** Which “activity change, negative = cytotoxicity” value does the source give for COc1ccc(OC)c(NC(=O)CSc2ccc(-c3sc(C)nc3C)nn2)c1 here?
**A.** The value was inactive: -8.17%.

**Q.** With O=C(COc1ccc(Cl)cc1)Nc1ccc2nc(SCC(=O)N3CCCC3)sc2c1 as the compound, how does the “activity change, negative = cytotoxicity” value read?
**A.** The value was inactive: 8%.

**Q.** With O=C(c1nc(-c2ccc(Cl)cc2)n2c1CCCCC2)N1CCN(c2ccccc2)CC1 as the compound, how does the “activity change, negative = cytotoxicity” value read?
**A.** The value was inactive: -11%.

**Q.** Which “activity change, negative = cytotoxicity” value does the source give for O=C(COc1ccccc1-c1nc(-c2ccccc2)no1)Nc1cccc([N+](=O)[O-])c1 here?
**A.** The value was inactive: -0.0557%.

**Q.** Which “activity change, negative = cytotoxicity” value does the source give for COc1ccc(CCNC(=O)C(=O)NCC(c2ccco2)S(=O)(=O)c2cccs2)cc1OC (configuration not stated) here?
**A.** Its value is inactive: 0.301%.

**Q.** For CCC(=O)N1CCc2cc(S(=O)(=O)NC(CC(C)C)C(=O)NCCc3ccccc3)ccc21 (configuration not stated), which “activity change, negative = cytotoxicity” value is on record?
**A.** Its value is inactive: -5.64%.

**Q.** With O=C(CSc1nnc2ccc3ccccc3n12)Nc1ccccc1Cl as the compound, how does the “activity change, negative = cytotoxicity” value read?
**A.** The value was inactive: -8.47%.

**Q.** Which “activity change, negative = cytotoxicity” value does the source give for Cc1ccc(NS(=O)(=O)c2ccc(-n3cccn3)cc2)cc1Cl here?
**A.** The value was inactive: -12.3%.

**Q.** For O=C(Cc1ccc(F)cc1)NCc1ccc2c(c1)CCN2C(=O)c1ccc(F)cc1, which “activity change, negative = cytotoxicity” value is on record?
**A.** The value was inactive: -3.09%.

**Q.** Which “activity change, negative = cytotoxicity” value does the source give for CCOC(=O)N1CCc2c(sc3c2c(=O)n(-c2ccccc2C(F)(F)F)c(=O)n3Cc2ccccc2C)C1 here?
**A.** The value was inactive: -5.05%.

**Q.** For COc1cccc(CNC(=O)c2ccc(-c3nc(COc4ccccc4)c(C)o3)cc2)c1, which “activity change, negative = cytotoxicity” value is on record?
**A.** Its value is inactive: -1.93%.

**Q.** For CCOc1ccc(C2CC(c3c(O)n(C4CCCCC4)c(=O)[nH]c3=O)=Nc3ccccc3S2)cc1 (configuration not stated), which “activity change, negative = cytotoxicity” value is on record?
**A.** Its value is inactive: 11.8%.
